# Measured values as given in PubChem BioAssay AID1347417 (National Center for Advancing Translational Sciences (NCATS), 2020).
# The whole screen tested about 120,000 compounds, of which about 5,300 (4.4%) were called active. The inconclusive results got no clear call from the source; some entries with a clear call stand among them for comparison. Calls follow the shape of the dose curve; as a rule, active = well fitted inhibition curve with a large enough effect; inconclusive = small, poorly fitted or top-dose-only effect; inactive = no such curve, though single readings can be large or run the other way. Potencies of inconclusive entries are doubtful fits and often do not repeat.
# Experiment: qHTS Primary assay for Inhibitors of Plasmodium falciparum Dd2 growth in vitro; also: nearly all actives have a fitted effect of over 65% in size;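 as to activity, negative = inhibition: plate controls were DMSO vehicle for no effect and reference drug for full effect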
# Details: P. falciparum Dd2 growth, SYBR Green, 72 h; activity, negative = inhibition: at 28.9 µM (top of the series) unless noted; series mostly up to 28.9 µM
# Outline: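 Infected erythrocytes (Dd2, 0.3% parasitemia, 2.5% hematocrit final) are added to compound in RPMI-1640/Albumax II medium, grown 72 h at 37C in low oxygen, then lysed with saponin/Triton-X containing SYBR Green and read by fluorescence.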
# Potency is read from the fitted curve at half-maximal effect; tags tell the direction and shape of the fitted curve.
SMILES,Potency,outcome,"activity, negative = inhibition"
O=C(CCCCn1c(=O)[nH]c2ccsc2c1=O)N1CCN(c2cccc(C(F)(F)F)c2)CC1,"inconclusive: 11.2 µM [inhibitor, single point]",,
Cc1ccc(C)c(N2CCN(C(=O)c3ccc(-c4nc(COc5ccccc5)c(C)o4)cc3)CC2)c1,"inconclusive: 11.2 µM [inhibitor, single point]",,
CCC(=O)N1CCc2c(C(=O)NCc3cccc(F)c3)cccc21,,inactive,
COc1ccccc1CN1CCCC12Cc1ccccc1CNC2=O (centres undefined),"inconclusive: 7.94 µM [inhibitor, partial curve, poor fit]",,
COC1C(=O)N(c2cccc(F)c2)C12CCN(S(=O)(=O)c1c(C)nn(C)c1C)CC2 (centres undefined),"inconclusive: 17.8 µM [inhibitor, single point]",,
Cc1cn2nnc(C(=O)NCCc3ccccc3)c2c(=O)[nH]1,"inconclusive: 4.47 µM [inhibitor, partial curve, poor fit]",,
CC(=O)NC1(C)CCCN(Cc2cccc(Nc3ccccc3)c2)C1 (centres undefined),"inconclusive: 2 µM [inhibitor, full curve, poor fit]",,
CC1CCN(S(=O)(=O)c2ccc3c(c2)N(CC(=O)NCCN(C)C)C(=O)CO3)CC1,"inconclusive: 10 µM [inhibitor, single point]",,
CCOC(=O)c1cccc(NC(=O)c2ccc3c(c2)nnn3CC)c1,,,inactive: -8.83%
Cc1ccc(C)c(Cn2c(=O)n(CC3CCC(C(=O)N4CCOCC4)CC3)c(=O)c3sccc32)c1 (centres undefined),"inconclusive: 11.2 µM [inhibitor, single point]",,
CCn1nccc1C(=O)NCCC1CCN(C(=O)Nc2cc(F)cc(F)c2)CC1,"inconclusive: 11.2 µM [inhibitor, single point]",,
O[C@H]1CC[C@@H](Cc2cc(COc3ccccc3)on2)O[C@@H]1CNCc1cccnc1,"inconclusive: 8.91 µM [inhibitor, partial curve, poor fit]",,
O=C(OCc1cc(=O)n2nc(-c3cccs3)sc2n1)c1cccc(Cl)c1,,inactive,
COc1ccc(-c2nc(Cn3c(-c4cccc(Cl)c4)nc(C)c(CCO)c3=O)c(C)o2)cc1,"inconclusive: 12.6 µM [inhibitor, single point]",,
CNC(=O)C1(N2CCC[C@H]2C(=O)NCCOC)CCOCC1,,,inactive: 24.5% [at 44.1 µM]
COc1ccc(CNC(=O)C[C@@H]2C[C@@H](C(C)C)[C@H](CNC(=O)c3ccc(C#N)cc3)C=C2C)cc1,"inconclusive: 8.91 µM [inhibitor, partial curve]",,
Cc1nn2c(c1-c1ccccc1C(N)=O)N(CCCc1ccccc1)CCC2,"inconclusive: 0.631 µM [inhibitor, partial curve, poor fit]",,
O=C([C@H]1C[C@H](Oc2ccccc2)CN1C(=O)COc1ccc(F)cc1)N1CCOCC1,"inconclusive: 20 µM [inhibitor, single point]",,
CCOc1ccccc1NC(=O)N1CCC2(CC1)Oc1ccccc1C(=O)N2Cc1ccccc1F,"inconclusive: 15.8 µM [inhibitor, single point]",,
O=C(CN1CC2CC(C1)[C@H]1CCCC(=O)N1C2)N1CCC(Cc2ccccc2)CC1 (some centres undefined),"inconclusive: 17.8 µM [inhibitor, single point]",,

SMILES,Potency,outcome,"activity, negative = inhibition"
COC(=O)[C@H](Cc1ccc(OC)cc1)NC(=O)[C@H]1CN(C(=O)c2cccnc2)CCN1C(=O)NC(C)C,"inconclusive: 12.6 µM [inhibitor, single point]",,
O=C(CCc1ccccc1)N1C[C@@H](CO)[C@H](c2nc(C3CC3)no2)C1,"inconclusive: 17.8 µM [inhibitor, single point]",,
CCn1ccc(C(=O)N2CC(C(=O)NCCc3ccncc3)C3(CCOCC3)C2)n1 (centres undefined),,,inactive: 9.96%
CC(=O)Nc1cccc(-c2nc(-c3c(C)noc3C)cc3c2cc(-c2ccccc2)n3C)c1,"inconclusive: 6.31 µM [inhibitor, partial curve, poor fit]",,
O=C(Cn1c(-c2cccs2)cc2ccccc21)NCCCN1CCN(c2ccccc2F)CC1,active: 8.91 µM,,
Cc1ccc(NC(=O)c2c(NC(=O)C(F)(F)F)sc3c2CCCCC3)cc1,active: 3.98 µM,,
COc1ccccc1CCN1Cc2cc(NC(=O)Cc3cccs3)ccc2OC(C)C1=O (centres undefined),active: 11.2 µM,,
COc1ccc(NC(=O)Nc2nnc(N(CC(C)C)CC(C)C)s2)c(OC)c1,"inconclusive: 17.8 µM [inhibitor, single point]",,
CCN(C(=O)c1cc2c(s1)-c1ccccc1OC2)c1cccc(C(F)(F)F)c1,"inconclusive: 17.8 µM [inhibitor, single point]",,
CCOC(=O)c1oc2ccc(S(=O)(=O)N3CCc4nnc(C5CC5)n4CC3)cc2c1C,"inconclusive: 7.94 µM [inhibitor, partial curve, poor fit]",,
COc1ccc(NC(=O)c2cc(C3CC3)nc3c2c(C)nn3-c2ccccc2)cc1OC,,,inactive: 13%
O=C(NCc1ccccc1)N1CC(Oc2cccc(-c3nc(-c4ccccc4)no3)c2)C1,"inconclusive: 3.16 µM [inhibitor, single point]",,
N#Cc1cccc(CN2CCOC[C@H]2c2ncc(-c3ccc(C(F)(F)F)cc3)[nH]2)c1,"inconclusive: 11.2 µM [inhibitor, partial curve, poor fit]",,
OCCN1CCN(c2ccc(-c3nc(-c4cccc(C(F)(F)F)c4)no3)cn2)CC1,"inconclusive: 12.6 µM [inhibitor, single point]",,
CC1(CNc2ccccc2)COc2ccc(C(=O)Nc3ccc4[nH]ccc4c3)cc2N1 (centres undefined),"inconclusive: 3.55 µM [inhibitor, single point]",,
c1ccc(-c2ccnc3nc(C4CC4)nn23)cc1,,,inactive: -4.75%
COc1ccc(OC)c(S(=O)(=O)N2[C@H]3CC[C@@H]2c2cnc(-c4ccccc4)nc2C3)c1,"inconclusive: 10 µM [inhibitor, single point]",,
Cc1ccccc1-c1[nH]nc2ncc(-c3cccc(F)c3)nc12,"inconclusive: 15.8 µM [inhibitor, single point]",,
CC1(C(=O)N2CCOc3c(O)cc(-c4cccc(Cl)c4)cc3C2)CCCO1 (centres undefined),"inconclusive: 10 µM [inhibitor, single point]",,
